Each structure is given as a SMILES string. About 14,000 (4.5%) of roughly 310,000 compounds showed an effect of 50% or more. The effect is printed as a negative number. This is one part of the list. Where a SMILES comes first, the peptide text is derived from it. The star is where a group is joined. Bz = O=C(c1ccccc1)*
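Further: peak tail current of the secondary pulse compared with the same well before compound.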

The target of this test is human ether-à-go-go-related gene (hERG) potassium channel (human, UniProt Q12809). Nature of the test: primary screen, population patch clamp on CHO cells stably expressing hERG.
Chain of human ether-à-go-go-related gene (hERG) potassium channel (Q12809 whole entry, looked up): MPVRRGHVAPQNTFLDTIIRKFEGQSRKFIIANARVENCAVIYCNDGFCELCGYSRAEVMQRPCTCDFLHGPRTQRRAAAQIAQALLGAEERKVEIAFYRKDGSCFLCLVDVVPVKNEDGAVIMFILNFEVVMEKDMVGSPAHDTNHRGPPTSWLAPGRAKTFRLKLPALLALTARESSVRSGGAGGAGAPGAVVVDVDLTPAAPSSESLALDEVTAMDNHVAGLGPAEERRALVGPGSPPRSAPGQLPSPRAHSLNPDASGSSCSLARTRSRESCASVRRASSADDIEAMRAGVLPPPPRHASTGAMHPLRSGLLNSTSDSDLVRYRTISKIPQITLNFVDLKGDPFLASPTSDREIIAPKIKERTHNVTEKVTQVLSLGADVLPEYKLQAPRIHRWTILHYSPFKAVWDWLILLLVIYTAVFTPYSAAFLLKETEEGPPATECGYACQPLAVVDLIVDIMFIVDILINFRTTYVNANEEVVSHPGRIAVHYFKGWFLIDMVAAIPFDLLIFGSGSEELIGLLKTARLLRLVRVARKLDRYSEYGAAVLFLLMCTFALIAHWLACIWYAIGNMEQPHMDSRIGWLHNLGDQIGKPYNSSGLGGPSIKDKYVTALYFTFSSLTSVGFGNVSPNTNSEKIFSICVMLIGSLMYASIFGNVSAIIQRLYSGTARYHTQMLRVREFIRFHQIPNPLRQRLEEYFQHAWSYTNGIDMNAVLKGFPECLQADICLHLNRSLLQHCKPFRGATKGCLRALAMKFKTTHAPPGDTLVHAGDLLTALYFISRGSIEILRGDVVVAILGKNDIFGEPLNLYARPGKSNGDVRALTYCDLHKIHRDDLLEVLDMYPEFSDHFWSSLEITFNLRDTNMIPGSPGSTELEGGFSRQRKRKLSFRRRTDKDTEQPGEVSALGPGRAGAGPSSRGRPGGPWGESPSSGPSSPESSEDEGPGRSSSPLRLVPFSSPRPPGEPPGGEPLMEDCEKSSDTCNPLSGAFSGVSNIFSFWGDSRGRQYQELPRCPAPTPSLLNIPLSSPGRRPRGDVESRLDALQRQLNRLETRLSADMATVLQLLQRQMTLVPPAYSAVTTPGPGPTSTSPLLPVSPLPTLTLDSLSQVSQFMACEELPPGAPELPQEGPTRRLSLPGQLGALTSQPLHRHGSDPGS
On to `O=C(COc1cc(F)ccc1[N+](=O)[O-])N1N=C(c2cccs2)CC1c1ccco1` (stereo not drawn), for which the “hERG current change (%, negative = inhibition) at 10uM” value is given as -16.4%. As to `Cc1ccc(NC(=O)C(C)Sc2nc(-c3ccccc3)cc(=O)[nH]2)cc1` (stereo not drawn), the “hERG current change (%, negative = inhibition) at 10uM” value came to 20.8%. `Cc1cccnc1NC(=O)CNC(=O)C1CCCCC1`: the “hERG current change (%, negative = inhibition) at 10uM” value is recorded as 10.5%.

For the compound `CCCCCOC(=O)c1ccc(N2C(=O)C3C4C=CC(C4)C3C2=O)cc1` (stereo not drawn), the “hERG current change (%, negative = inhibition) at 10uM” value is given as -6.84%.

With `Cc1ccc(Cn2c(SCC(=O)N3CC(=O)Nc4ccccc43)nc3ccccc3c2=O)cc1`, the “hERG current change (%, negative = inhibition) at 10uM” value stood at 11.7%. In the case of `CCOC(=O)Cc1c[nH]c2ccccc12`, the “hERG current change (%, negative = inhibition) at 10uM” value was found to be 11.9%. To `Oc1ccc(Cl)cc1N=Cc1sc2ccccc2c1Cl` belongs 15.5%; to `Clc1ccc(-c2nnc(SCc3nc4ccccc4s3)o2)cc1`, -9.91%. For `Cc1nc2nc(SCC(=O)NCCCN3CCOCC3)nn2c(C)c1Cc1ccccc1`, the “hERG current change (%, negative = inhibition) at 10uM” value was 14.6%. Consider `CC(C)Cc1nc2c(nnn2Cc2ccccc2F)c(=O)[nH]1`, for which the “hERG current change (%, negative = inhibition) at 10uM” value is -38.9%.

In the case of `O=C1N=C(N2CCCCC2)S/C1=C\c1cn[nH]c1-c1ccccc1`, the “hERG current change (%, negative = inhibition) at 10uM” value is listed as 0.799%. The value for `CCCCCN(C(=O)CCC(=O)OC(C)C(=O)c1ccccc1)c1c(N)n(CCCC)c(=O)[nH]c1=O` (stereo not drawn) was -12.2%; that for `Cn1nc(-c2ccccc2)c(CSc2ccccc2Cl)c1Cl` was 6.46%. To `O=C(c1ccc(S(=O)(=O)N2CCOCC2)cc1)N1CCN=C1SCc1cccnc1` belongs 6.5%. The value for `Cl.Oc1cccc(Nc2nc(-c3ccccc3Cl)nc3ccccc23)c1` was 7.09%; that for `C/C=C(\C)CN1CCN(c2cccc(C)c2C)CC1` was -3.49%. On to `O=C(Cn1ccc2ccccc2c1=O)NCC(=O)N1CCN(c2ccccc2F)CC1`, for which the “hERG current change (%, negative = inhibition) at 10uM” value came to 26%. For `C=C(c1ccccc1)c1ccc(N(C)C)cc1`, the “hERG current change (%, negative = inhibition) at 10uM” value turned out to be 13.1%. The value for `COc1ccc(OC)c(S(=O)(=O)N2CCN(c3ncccn3)CC2)c1` was -10.6%; that for `O=C(NCCCN1CCCC1=O)NC12CC3CC(CC(C3)C1)C2` was 10.2%. To `COc1ccc(C(=O)CN2C(=O)COc3ccccc32)cc1` belongs -15%; to `O=C(Nc1nnc(-c2ccc(Br)cc2)o1)c1cccc(N2C(=O)CCC2=O)c1`, 13.4%; to `O=C(CN1CCc2ccccc21)Nc1ccc2c(c1)OCCCO2`, -15.9%. The value for `O=C(O)c1ccc(S(=O)(=O)N(Cc2ccc(F)cc2)C2CCCCC2)cc1` was 13.9%; that for `Cc1cc(C)cc(C(=O)NCC(=O)OCC(=O)N2CCCCC2)c1` was 1.04%; that for `COc1cccc(CNC(=O)c2ccccc2-c2ccccc2)c1` was 17.2%. As for `CSc1ccccc1N1CCN(C(=O)Nc2ccc3c(c2)NC(=O)CO3)CC1`, the “hERG current change (%, negative = inhibition) at 10uM” value was -56.3%. As for `O=C(NC(Cc1ccccc1)C(=O)N1CCCC1C(=O)O)c1ccccc1` (stereo not drawn) (Bz-Phe-Pro-OH; configuration not given here), the “hERG current change (%, negative = inhibition) at 10uM” value is 9.07%. For the compound `COC(=O)/C(C#N)=C/c1ccc(OC(=O)c2ccccn2)cc1`, the “hERG current change (%, negative = inhibition) at 10uM” value was -6.28%.

With `CSc1ccc(S(=O)(=O)Nc2c(C)cccc2C)cc1`, the “hERG current change (%, negative = inhibition) at 10uM” value is listed as 3.04%.

On to `O=C(Nc1ccccc1)c1cc(S(=O)(=O)N2CCOCC2)cs1`, for which the “hERG current change (%, negative = inhibition) at 10uM” value was -17.5%.

As for `O=C(O)C(Cc1ccc(Cl)cc1)Sc1nc2ccccc2[nH]1` (stereo not drawn), the “hERG current change (%, negative = inhibition) at 10uM” value came out at 20.3%.

With `CCOC(=O)Cc1nnc(NC(=O)C(CC)Sc2nnc3c4ccccc4n(C)c3n2)s1` (stereo not drawn), the “hERG current change (%, negative = inhibition) at 10uM” value was -11.1%.

Regarding `COC(=O)c1nnn(-c2nonc2N)c1CSc1ccc(Cl)cc1`, the “hERG current change (%, negative = inhibition) at 10uM” value turned out to be 3.92%.

As to `CSc1ccc(C(c2c(O)c3ccccc3oc2=O)c2c(C)n(C)n(-c3ccccc3)c2=O)cc1` (stereo not drawn), the “hERG current change (%, negative = inhibition) at 10uM” value is -12.9%. Take `O=C1c2cccc3cccc(c23)C(=O)N1CCN1CCN(C(=S)Nc2ccccc2)CC1`: the “hERG current change (%, negative = inhibition) at 10uM” value was -13.1%. The value for `Cc1nc(SCc2ccc(Br)cc2)[nH]c(=O)c1C` was 13.7%; that for `Cc1ccc(/C=C/C(=O)Nc2cc(S(=O)(=O)N3CCOCC3)ccc2N2CCOCC2)cc1` was -43.2%; that for `Clc1ccc(-c2nsc(N3CCOCC3)n2)c(Cl)c1` was 4.34%. The value for `COc1cccc(C2(O)CCN(Cc3ccncc3)CC2)c1` was 7.55%; that for `O=C(CN(Cc1ccccc1F)C(=O)Cn1nnc(-c2cccs2)n1)NC1CCCCC1` was 4.32%. Turning to `COc1ccccc1Cc1nnnn1CC(=O)O`, the “hERG current change (%, negative = inhibition) at 10uM” value worked out at 5.77%. With `Cc1cc(N2CCCCC2)nc(SCc2ccc(C#N)cc2)n1`, the “hERG current change (%, negative = inhibition) at 10uM” value was -31.1%.

Consider `O=C(NCCCn1ccnc1)c1cc2c(s1)CCCCC2`, for which the “hERG current change (%, negative = inhibition) at 10uM” value is recorded as -18.5%. In the case of `COc1cc(NC(=S)Nc2ccc3c(c2)OCCO3)cc(OC)c1OC`, the “hERG current change (%, negative = inhibition) at 10uM” value stood at 7.33%. For `N#CC1(c2ccccc2)CCC(NCCc2ccccc2)CC1.O=C(O)C(=O)O` (stereo not drawn), the “hERG current change (%, negative = inhibition) at 10uM” value was -69.5%.

For the compound `CSC1=N/C(=C\c2ccc(F)cc2)C(=O)S1`, the “hERG current change (%, negative = inhibition) at 10uM” value is -5.08%. For the compound `Cc1nc(SCC(=O)NCCc2ccc(Cl)cc2)nc(C)c1C`, the “hERG current change (%, negative = inhibition) at 10uM” value is on record as -9.64%. The value for `Cc1[nH]nc(-c2ccc(OCc3cnn(-c4ccccc4)c3)c(C)c2O)c1Oc1ccccc1` was 12%; that for `Cn1c(=O)[nH]c(=O)c2c1nc(N1CCCCCC1)n2CCN1CCCCCC1` was -30.6%.

Regarding `CN1CCN(C(=O)C2CC(c3ccc(F)cc3)=NO2)CC1` (stereo not drawn), the “hERG current change (%, negative = inhibition) at 10uM” value was 3.31%. Take `CC(=O)Nc1ccc(NC(=O)Cn2c(CC(=O)N3CCCC3)nc3ccccc32)cc1`: the “hERG current change (%, negative = inhibition) at 10uM” value is recorded as 9%. As to `CCc1ccc(CN2C(=O)c3ccccc3C2C(=O)NCc2cccnc2)cc1` (stereo not drawn), the “hERG current change (%, negative = inhibition) at 10uM” value is -19.5%. As to `O=C(Nc1ncc([N+](=O)[O-])s1)C1COc2ccccc2O1` (stereo not drawn), the “hERG current change (%, negative = inhibition) at 10uM” value is reported as 17.5%. On to `Cc1cc(C(C)(C)C)cc(S(=O)(=O)Nc2ccc(C(=O)O)cc2)c1C`, for which the “hERG current change (%, negative = inhibition) at 10uM” value amounted to 12.7%. With `C#CCOC(=O)/C(=C/C=C/c1ccccc1)NC(=O)c1ccccc1`, the “hERG current change (%, negative = inhibition) at 10uM” value is given as -20%. In the case of `CCOc1cccc(-c2nc(C(N)=O)c3[nH]c(=O)n(-c4cccc(Cl)c4)c3n2)c1O`, the “hERG current change (%, negative = inhibition) at 10uM” value is 20.3%. For `CC1CC(C)(C)NC(=S)N1CCC(=O)NCCc1ccc(Cl)cc1` (stereo not drawn), the “hERG current change (%, negative = inhibition) at 10uM” value is -24.5%. With `CCOC(=O)c1sc(NS(=O)(=O)c2ccc(F)cc2)nc1C`, the “hERG current change (%, negative = inhibition) at 10uM” value is recorded as 9.64%. For `O=C(C1CC1)N1CCN(c2ccc(F)cc2)CC1`, the “hERG current change (%, negative = inhibition) at 10uM” value is given as 13%. The value for `O=C(Nc1nnc(-c2ccccc2)o1)NC1CCCCC1` was 14.3%.

On to `COc1ccc(OC)c(S(=O)(=O)N2CCCC(N3CCN(c4ccccc4)CC3)C2)c1` (stereo not drawn), for which the “hERG current change (%, negative = inhibition) at 10uM” value was 6.65%. The value for `Cc1oc(-c2ccccc2Cl)nc1CS(=O)CC(=O)NCc1ccccc1Cl` (stereo not drawn) was -12.9%; that for `CC(=O)c1cccc(NC(=O)Nc2cccs2)c1` was 5.62%. In the case of `CCS(=O)(=O)c1ccc(O)c(NC(=O)CC2(CC(=O)O)CCCC2)c1`, the “hERG current change (%, negative = inhibition) at 10uM” value is given as 7.15%. To `Cc1ccc(S(=O)(=O)N(C)c2nonc2C)cc1` belongs -15.6%; to `CC(C)C(NC(=O)COc1ccccc1)C(=O)O` (stereo not drawn), -2.4%. `COc1ccc(C(c2sc3nc(C)nn3c2O)N2CCN(CCO)CC2)cc1OC` (stereo not drawn): the “hERG current change (%, negative = inhibition) at 10uM” value is listed as 2.57%. To `O=C(COc1cccnc1[N+](=O)[O-])Nc1ccccc1Sc1ccccc1` belongs -16.5%.

Regarding `Cc1sc2nc(N3CCOCC3)[nH]c(=O)c2c1-c1ccccc1`, the “hERG current change (%, negative = inhibition) at 10uM” value is listed as -5.87%. To `COc1ccc2noc3c2c1C(=O)c1ccccc1-3` belongs 1.04%; to `O=C(Cn1cncn1)N/N=C/c1c2ccccc2cc2ccccc12`, -9.2%; to `Cc1nc2nc(C)c(CCC(=O)NCCCN3CCN(c4cccc(Cl)c4)CC3)c(C)n2n1.Cl`, -32.4%. The value for `CC(C)(C)c1ccc2c(c1)OC(C(=O)N/N=C\c1ccc[nH]1)CO2` (stereo not drawn) was -29.6%; that for `Cc1cc(Cl)c(S(=O)(=O)NC(C)C)cc1OCC(N)=O` was 9.61%; that for `CCOC(=O)C1=C(CC)Nc2ccccc2N=C1NC(=O)Nc1ccc(Cl)c(Cl)c1` was -4.88%.

On to `CCC(=O)N1N=C(c2cccs2)CC1c1ccc(C)cc1` (stereo not drawn), for which the “hERG current change (%, negative = inhibition) at 10uM” value turned out to be 2.52%. The value for `COc1c[nH]n(C2CCCCC2)c(=O)c1=O` was 1.26%; that for `CC(=O)C1C(c2cccc(Oc3ccccc3)c2)NC(=O)NC1(O)C(F)(F)F` (stereo not drawn) was -2.85%. The value for `O=C(COc1ccc(Cl)cc1Cl)NCc1ccco1` was 0.837%; that for `CCOC(=O)C1(Cc2ccccc2)CCCN(C(=O)c2ccc(-n3ccnc3)cc2)C1` (stereo not drawn) was -58.4%.

`CCCc1nc2sc3ccccc3c(=O)c2c(=O)n1CCOC`: the “hERG current change (%, negative = inhibition) at 10uM” value is reported as 9.8%. To `CCOC(=O)c1ccc(NC(=O)Cc2cccs2)cc1` belongs -7.39%; to `CC1CCC/C(=C\c2ccc(O)cc2)C1=O` (stereo not drawn), -0.914%; to `COc1ccc2nc(N3CCC(C)CC3)c(C#N)cc2c1`, 22.5%.

For the compound `O=[N+]([O-])c1ccc(Cl)c(CN2CCCCCC2)c1`, the “hERG current change (%, negative = inhibition) at 10uM” value is given as -2.55%. With `CCCCNC(=O)c1ccccc1NS(=O)(=O)c1ccc2c(c1)OCCO2`, the “hERG current change (%, negative = inhibition) at 10uM” value was 0.757%. As for `CCCN1CNC(=S)N(c2ccccc2C)C1`, the “hERG current change (%, negative = inhibition) at 10uM” value was 12.5%. As for `CCN1CCN(c2nc(N(C)c3ccccc3)nc(N)c2[N+](=O)[O-])CC1`, the “hERG current change (%, negative = inhibition) at 10uM” value is on record as 4.31%. As to `CC1CCCC(NC(=O)COC(=O)c2cccc(S(=O)(=O)N3CCCCC3)c2)C1C` (stereo not drawn), the “hERG current change (%, negative = inhibition) at 10uM” value was -2.73%.

For the origin of these results see paper PMC4336329 (PLoS ONE, 2015).
